# According to the supplement of paper PMC9446081:
# Screen size: about 39,000 compounds; about 220 (0.56%) showed activity. Some of the results follow.
# Test system: Escherichia coli K-12 BW25113
# Test: relative growth (OD600 normalised to plate interquartile mean) (fraction); higher = less growth inhibition, active = 0.2 or less
# Conditions: 50 µM; LB; incubation time: overnight (16-24 h)
# 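Also: static incubation at 37 °C against the wild-type strain, values averaged over two biological replicates.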
row,Compound,relative growth
1,C[C@H]1CN([C@@H](C)CO)C(=O)Cc2cc(NS(C)(=O)=O)ccc2O[C@@H]1CN(C)Cc1ccc(C(F)(F)F)cc1,inactive: 0.893
2,C[C@H]1CN([C@@H](C)CO)C(=O)c2cccc(NC(=O)c3ccc(-c4nccs4)cc3)c2O[C@H]1CN(C)Cc1ccc(Cl)c(Cl)c1,inactive: 1.02
3,O=C(CCCCCNC(=O)OCc1ccc(CO[C@@H]2C[C@H](c3ccc(Br)cc3)C=C(C(=O)N3CCCCCCC3)O2)cc1)NO,inactive: 0.983
4,CN1CCN(C(=O)C[C@H]2CC[C@@H]3[C@H](COC[C@H](O)CN3C(=O)C3CCOCC3)O2)CC1,inactive: 0.988
5,Cc1noc(C)c1S(=O)(=O)Nc1ccc2c(c1)CC(=O)N([C@H](C)CO)C[C@H](C)[C@H](CN(C)Cc1ccccc1)O2,inactive: 1.01
6,CCC(=O)N[C@H]1C=C[C@@H](CC(=O)OC)O[C@H]1CO,inactive: 1.01
7,C[C@@H]1CCCCO[C@H](CN(C)Cc2ccc(C(F)(F)F)cc2)[C@@H](C)CN([C@H](C)CO)C(=O)c2cc(NC(=O)c3ccncc3)ccc2O1,inactive: 0.962
8,C[C@H]1CN([C@@H](C)CO)C(=O)c2cc(Br)cnc2O[C@@H]1CN(C)S(=O)(=O)c1ccccc1,inactive: 1
9,CCOC(=O)c1cnc[nH]1,inactive: 0.976
10,C[C@H]1CCCCO[C@@H](CN(C)Cc2ccc3c(c2)OCO3)[C@@H](C)CN([C@@H](C)CO)C(=O)c2cc(NC(=O)Nc3ccc4c(c3)OCO4)ccc2O1,inactive: 0.942
11,C[C@H](N)CCCP(=O)(O)O,inactive: 1.05
12,C[C@H]1CN([C@@H](C)CO)C(=O)c2cc(C#Cc3cccc(F)c3)cnc2O[C@@H]1CN(C)CC1CCOCC1,inactive: 1.01
13,O=C(CN1CCOCC1)NCC[C@H]1CC[C@H](NC(=O)c2ccccc2F)[C@@H](CO)O1,inactive: 1.01
14,COCCNC(=O)C[C@H]1C[C@@H]2c3cc(NC(=O)CN(C)C)ccc3O[C@@H]2[C@@H](CO)O1,inactive: 1.04
15,C[C@H]1CN([C@@H](C)CO)C(=O)c2cc(NC(=O)Nc3ccc4c(c3)OCO4)ccc2O[C@H]1CN(C)S(C)(=O)=O,inactive: 1
16,Cc1ccc(S(=O)(=O)N(C)C[C@@H]2Oc3c(NS(=O)(=O)c4cccs4)cccc3C(=O)N([C@@H](C)CO)C[C@H]2C)cc1,inactive: 1.01
17,Cc1ccccc1OC(=O)c1sc2ccccc2c1Cl,inactive: 0.966
18,CNC[C@@H]1OCCCC[C@H](C)Oc2ccc(NC(=O)Nc3ccc(C(F)(F)F)cc3)cc2C(=O)N([C@@H](C)CO)C[C@H]1C,inactive: 0.983
19,CC(=O)O[C@H](C[C@H](O)C(C)(O)CCC=C(C)C)/C(C)=C/COC[C@@H](O)[C@@H](O)[C@@H](O)[C@@H](O)CO (some centres not stated),inactive: 0.968
20,C[C@@H]1CCCCO[C@@H](CN(C)C(=O)CCC(F)(F)F)[C@@H](C)CN([C@H](C)CO)C(=O)c2cc(NC(=O)NC3CCCCC3)ccc2O1,inactive: 1
21,C[C@@H]1CCCCO[C@H](CN(C)Cc2ccc(C(=O)O)cc2)[C@H](C)CN([C@H](C)CO)C(=O)c2cc(NC(=O)Nc3cccc4ccccc34)ccc2O1,inactive: 0.954

row,Compound,relative growth
1,COc1cccc(S(=O)(=O)Nc2ccc3c(c2)[C@@H]2C[C@H](CC(=O)NCc4cccc(F)c4)O[C@@H](CO)[C@@H]2O3)c1,inactive: 1.03
2,Cc1cn([C@@H]2C[C@H](O)[C@@H](CO)O2)c(=O)[nH]c1=O,inactive: 0.988
3,O=c1ccc2cc3ccoc3cc2o1,inactive: 0.973
4,C[C@@H]1CCCCO[C@@H](CN(C)S(=O)(=O)c2cn(C)cn2)[C@H](C)CN([C@H](C)CO)C(=O)c2cc(NC(=O)Nc3ccc(C(F)(F)F)cc3)ccc2O1,inactive: 1.02
5,O=c1cc(-c2ccccc2)oc2ccc(O)cc12,inactive: 1
6,O=C(C[C@H]1CC[C@@H]2[C@H](COC[C@H](O)CN2C(=O)c2ccncc2)O1)NC1CCC1,inactive: 1.01
7,O=C(OC1Cc2c(O)cc(O)cc2OC1c1cc(O)c(O)c(O)c1-c1c(C2Oc3cc(O)cc(O)c3CC2OC(=O)c2cc(O)c(O)c(O)c2)cc(O)c(O)c1O)c1cc(O)c(O)c(O)c1 (configuration not stated),inactive: 1.05
8,C[C@@H]1CN([C@@H](C)CO)C(=O)c2cc(NC(=O)Cc3ccccc3)ccc2O[C@@H](C)CCCCO[C@H]1CN(C)C(=O)C1CCCCC1,inactive: 1.02
9,Cc1noc(C)c1NC(=O)N(C)C[C@@H]1Oc2ccc(NC(=O)CCN3CCOCC3)cc2C(=O)N([C@H](C)CO)C[C@H]1C,inactive: 0.987
10,Cc1ccc[nH]c1=O,inactive: 1
11,C[C@@H]1CN([C@@H](C)CO)C(=O)c2cc(NS(C)(=O)=O)ccc2O[C@@H](C)CCCCO[C@H]1CN(C)Cc1ccc(C(F)(F)F)cc1,inactive: 0.996
12,Cc1noc(C)c1S(=O)(=O)Nc1ccc2c(c1)CC(=O)N([C@H](C)CO)C[C@H](C)[C@@H](CN(C)Cc1ccccc1)O2,inactive: 0.998
13,CN(C)C(=O)C[C@H]1CC[C@@H]2[C@H](COC[C@H](O)CN2S(=O)(=O)c2ccccc2)O1,inactive: 0.997
14,COCC#Cc1ccc2c(c1)O[C@@H](CN(C)C(=O)c1ccccc1)[C@H](C)CN([C@H](C)CO)S2(=O)=O,inactive: 1.01
15,O=C(NCC(F)(F)F)[C@H]1[C@H](CO)[C@H]2Cn3c(cccc3=O)[C@H]2N1C(=O)C1CCC1,inactive: 1.01
16,C[C@@H]1CCCCO[C@H](CN(C)Cc2ccccc2)[C@H](C)CN([C@@H](C)CO)C(=O)c2cc(NC(=O)CCC(F)(F)F)ccc2O1,inactive: 0.988
17,C[C@@H]1CCCCO[C@H](CN(C)C(=O)c2ccccc2)[C@H](C)CN([C@H](C)CO)C(=O)c2cc(NC(=O)C3CCCCC3)ccc2O1,inactive: 0.983
18,O=C(CC1CC1)NCc1cnc2n1CCNCC2,inactive: 1.01
19,CC(=O)NCCn1cccc1,inactive: 1.01
20,COc1ccc2occ(C(C)=O)c2c1,inactive: 0.977
21,C[C@@H]1CCCCO[C@@H](CN(C)Cc2ccc3c(c2)OCO3)[C@H](C)CN([C@H](C)CO)C(=O)c2cc(NC(=O)Cc3ccccc3)ccc2O1,inactive: 1
